From article PMC8096781 come the findings set out here.

The assay deals with T1, Flag-FOXM1C (overexpressed in HeLa cells), Q08050.
T1 chain: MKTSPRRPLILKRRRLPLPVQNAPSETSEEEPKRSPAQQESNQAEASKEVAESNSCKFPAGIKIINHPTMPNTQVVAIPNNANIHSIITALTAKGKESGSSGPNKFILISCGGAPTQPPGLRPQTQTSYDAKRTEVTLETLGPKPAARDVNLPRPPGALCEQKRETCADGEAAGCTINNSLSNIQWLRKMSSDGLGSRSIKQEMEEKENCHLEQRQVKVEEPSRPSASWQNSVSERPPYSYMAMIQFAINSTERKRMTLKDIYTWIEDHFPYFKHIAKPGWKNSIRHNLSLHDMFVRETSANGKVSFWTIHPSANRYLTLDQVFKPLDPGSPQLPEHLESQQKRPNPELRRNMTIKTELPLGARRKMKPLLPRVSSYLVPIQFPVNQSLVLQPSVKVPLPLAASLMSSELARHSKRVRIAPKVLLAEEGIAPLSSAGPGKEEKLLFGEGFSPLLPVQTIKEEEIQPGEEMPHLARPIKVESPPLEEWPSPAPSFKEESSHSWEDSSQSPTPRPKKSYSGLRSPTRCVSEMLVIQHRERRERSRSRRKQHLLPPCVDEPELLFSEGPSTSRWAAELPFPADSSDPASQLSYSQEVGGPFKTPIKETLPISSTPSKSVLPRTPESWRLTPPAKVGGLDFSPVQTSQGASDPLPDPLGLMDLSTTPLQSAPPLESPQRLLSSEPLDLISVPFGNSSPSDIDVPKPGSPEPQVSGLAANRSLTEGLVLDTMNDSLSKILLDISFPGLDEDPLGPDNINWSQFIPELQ
Kind of assay: co-IP; vector control and Flag-FOXM1A/B/C/D-overexpressing HeLa cells further transfected with HA-p65 or HA-p50 plasmid; anti-Flag or anti-HA antibody; western blot. As to conditions: remark: other sources report otherwise.

Results are given in words; binding and its absence hold for the method and conditions named. In cells and extracts the contact can be indirect. Sequences can lack the tags named with a protein.

B1: HA-p50, P19838 1-433 (protein)
chain: MAEDDPYLGRPEQMFHLDPSLTHTIFNPEVFQPQMALPTDGPYLQILEQPKQRGFRFRYVCEGPSHGGLPGASSEKNKKSYPQVKICNYVGPAKVIVQLVTNGKNIHLHAHSLVGKHCEDGICTVTAGPKDMVVGFANLGILHVTKKKVFETLEARMTEACIRGYNPGLLVHPDLAYLQAEGGGDRQLGDREKELIRQAALQQTKEMDLSVVRLMFTAFLPDSTGSFTRRLEPVVSDAIYDSKAPNASNLKIVRMDRTAGCVTGGEEIYLLCDKVQKDDIQIRFYEEEENGGVWEGFGDFSPTDVHRQFAIVFKTPKYKDINITKPASVFVQLRRKSDLETSEPKPFLYYPEIKDKEEVQRKRQKLMPNFSDSFGGGSGAGAGGGGMFGSGGGGGGTGSTGPGYSFPHYGFPTYGGITFHPGTTKSNAGMKHG
Take B1: the binding entry was “no binding”.
